Laboratory results: PubChem BioAssay AID488969 (Vanderbilt High Throughput Screening Facility, 2010)
Whole data set: some 110,000 compounds, median “z-score” near -0.1, cut for the highest 2% near 2. The list shows a part of the results. The source made the active and inactive calls.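 Rule for the calls: active = z-score in the third read window above 3 or below -3; inactive = the rest.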

Target: Metabotropic glutamate receptor 8 (Rattus norvegicus) (UniProt P70579)
Assay: rat mGluR8 modulators via GIRK flux, primary screen, cell-based, thallium flux, HTS (AID 488969)
Conditions: HEK293 rat mGluR8, GIRK (G protein-gated inwardly rectifying potassium channel) thallium flux, FluoZin2; at 10 µM; stronger effect = higher value; submaximal glutamate (EC20) added with thallium

UniProt P70579, sequence (P70579 whole entry, looked up): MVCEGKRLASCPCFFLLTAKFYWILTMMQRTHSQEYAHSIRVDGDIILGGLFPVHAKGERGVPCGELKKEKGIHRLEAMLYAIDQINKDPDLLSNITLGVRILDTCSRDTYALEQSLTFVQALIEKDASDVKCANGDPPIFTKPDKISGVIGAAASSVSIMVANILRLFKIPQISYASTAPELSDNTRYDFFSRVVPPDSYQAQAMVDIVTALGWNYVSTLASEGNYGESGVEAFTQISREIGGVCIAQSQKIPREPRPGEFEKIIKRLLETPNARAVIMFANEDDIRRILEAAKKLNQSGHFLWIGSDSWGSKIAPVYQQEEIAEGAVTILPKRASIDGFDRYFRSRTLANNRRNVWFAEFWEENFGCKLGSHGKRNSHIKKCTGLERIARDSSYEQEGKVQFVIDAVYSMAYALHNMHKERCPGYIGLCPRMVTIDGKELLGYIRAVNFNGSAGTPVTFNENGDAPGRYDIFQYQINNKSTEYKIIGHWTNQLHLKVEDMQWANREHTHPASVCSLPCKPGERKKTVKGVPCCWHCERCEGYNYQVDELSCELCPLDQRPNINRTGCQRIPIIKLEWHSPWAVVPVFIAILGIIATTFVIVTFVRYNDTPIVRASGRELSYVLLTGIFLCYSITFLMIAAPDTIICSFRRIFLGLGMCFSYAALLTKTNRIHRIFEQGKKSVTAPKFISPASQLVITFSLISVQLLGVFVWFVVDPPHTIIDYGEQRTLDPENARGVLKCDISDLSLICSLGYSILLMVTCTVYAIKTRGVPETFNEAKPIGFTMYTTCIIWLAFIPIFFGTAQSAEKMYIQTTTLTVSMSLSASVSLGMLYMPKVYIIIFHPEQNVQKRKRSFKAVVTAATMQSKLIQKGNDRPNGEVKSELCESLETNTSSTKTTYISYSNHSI

Row | Compound | z-score
1 | CCOc1ccc(NC(=O)Nc2cc(C)ccc2OC)cc1 | 1.89
2 | CCOC(=O)C1CCN(C(=O)Cc2cccs2)CC1 | -0.606
3 | CCOc1ccccc1/C=C(/NC(=O)c1ccccc1)C(=O)N(CC)CC | -0.729
4 | O=c1[nH]c(N2CCCCC2)nc2c1CCCC2 | -0.0686
5 | CCCCC(=O)NC1(C(F)(F)F)C(=O)N(CC(C)C)C2=C1C(=O)CC(C)(C)C2 (stereo not drawn) | -0.21
6 | Cc1c(Cl)cccc1NC(=S)N(CCCN1CCOCC1)Cc1cccs1 | -0.314
7 | CCCC(=O)Nc1cc(-c2nn(C)c(=O)c3ccccc23)ccc1N1CCOCC1 | -0.907
8 | O=C(Nc1cccc(S(=O)(=O)N2CCCC2)c1)c1ccc2c(c1)OCO2 | -0.514
9 | Cn1ccnc1SCC(=O)Nc1cccc(O)c1 | -0.145
10 | Cc1cccc(NC(=O)c2cc(NC(=O)CCCC(=O)O)ccc2Cl)n1 | 1.63
11 | COc1ccc2c(c1)CCc1c(C(=O)N3CC4(C)CC3CC(C)(C)C4)noc1-2 (stereo not drawn) | -0.354
12 | O=C(NCc1ccccn1)C(C(=O)c1ccc(F)cc1)n1ccccc1=O (stereo not drawn) | 0.0468
13 | O=C(c1ccccn1)N1CCN(c2ccc(C(F)(F)F)cn2)CC1 | 0.0382
14 | N#Cc1c(N)nc2c3c(sc(=N)c2c1N)NC(=O)CC3c1c(F)cccc1Cl (stereo not drawn) | -0.296
15 | O=C(N/N=C/c1ccc(F)cc1)c1ccc(Br)cc1 | 0.445
16 | CCOC(=O)c1sc(NC(=O)/C=C/c2cnn(C)c2C)c(C(=O)OC(C)C)c1C | -0.129
17 | CCC(=O)c1ccc(N2CCCC2)c(F)c1 | 0.0378
18 | CCCN(CCC)S(=O)(=O)c1ccc(NS(=O)(=O)c2ccc(F)cc2)cc1 | -0.328
19 | COc1cc(C)nc(N(Cc2ccccc2)S(=O)(=O)c2ccccc2)n1 | 2.43
20 | C=CCNC(=O)c1ccccc1NC(=O)c1ccc(Cl)c(S(=O)(=O)Nc2ccccc2)c1 | -0.506
21 | COc1ccc(CCNC(=O)c2ccc(Cl)cc2)cc1 | -0.0532
22 | Cc1ccccc1OCC(=O)NNC(=O)CN1C(=O)c2ccccc2C1=O | -0.179
23 | CCCn1nc2cc(C(=O)NCc3ccc4c(c3)OCO4)ccc2c1OCC | -0.409

Row | Compound | z-score
24 | COc1ccc(N(CCCN2C(=O)c3cccc4cccc(c34)C2=O)C(=O)c2cccc(OC)c2)cc1 | 0.116
25 | Cc1nc2cc(NC(=O)Nc3ccc(N4CCOCC4)cc3)ccc2n1C | 0.497
26 | C/C(=N\N=C(/N)SC1CC(=O)N(c2cccc(Cl)c2)C1=O)c1cccs1 (stereo not drawn) | 0.517
27 | COC(=O)c1cccc(Cn2c(Cl)c(/C=N/NC(=O)c3ccccc3Cl)sc2=O)c1 | 0.0725
28 | CC(=O)OC[C@H]1O[C@@H](Sc2cccc3cccnc23)[C@H](OC(C)=O)[C@@H](OC(C)=O)[C@H]1OC(C)=O | 0.891
29 | COc1ccc(/C=N/N=C2/NC(=O)CC(C(=O)O)S2)cc1 (stereo not drawn) | -0.208
30 | COc1cccc(NS(=O)(=O)c2c(C)n(C)c(=O)n(C)c2=O)c1 | 0.496
31 | Cc1ccc(CC2S/C(=N/c3ccccn3)NC2=O)cc1 (stereo not drawn) | 0.0705
32 | O=C(CCCNS(=O)(=O)c1ccc(Br)cc1)N1CC[C@@]2(O)CCCC[C@H]2C1 | 0.802
33 | CC(=O)NC(NC(C)=O)c1ccc(N(C)C)cc1 | 0.737
34 | CCOC(=O)c1[nH]c2ccccc2c1NC(=O)c1ccco1 | 0.488
35 | COC(=O)c1ccc(C(C(=O)NC2CCCCC2)N(CCc2ccccc2)C(=O)Cc2cccs2)cc1 (stereo not drawn) | -0.269
36 | CC1(C)CC(=O)CC(=O)/C1=N\Nc1c(Cl)cc(Cl)cc1Cl | -0.302
37 | CCOC(=O)CNC(=O)Cn1c(C)cc2ccccc2c1=O | 0.0766
38 | Cc1ccc(C(C)C)c(OCc2ccc(C(=O)N/N=C/c3ccc(O)cc3O)cc2)c1 | -0.1
39 | Cn1nc(CC(=O)NCc2ccc(C(F)(F)F)cc2)c2ccccc2c1=O | -0.231
40 | O=C(NC1CCC(O)CC1)c1ccc(S(=O)(=O)NCc2ccco2)cc1 (stereo not drawn) | -0.706
41 | Cc1nccn1CC(O)COC1CCCCC1 (stereo not drawn) | -0.0665
42 | Cc1ccc(CC(=O)Nc2cccc(C)n2)cc1 | -0.243
43 | CCOC(=O)C1=C(N)Oc2c(oc(CO)cc2=O)C1c1c(F)cccc1Cl (stereo not drawn) | -0.854
44 | Cc1onc(-c2ccccc2)c1C(=O)NNC(=S)NC(=O)/C=C/c1cccs1 | 1.86
45 | CCOC(=O)c1ccc(NC(=O)CSc2nnc(NC(=O)c3ccc(S(=O)(=O)N4CCOCC4)cc3)s2)cc1 | 0.00895
46 | CCN(c1ccccc1)S(=O)(=O)c1ccc2[nH]cc(C(=O)NCCOC)c(=O)c2c1 | -0.154

Row | Compound | z-score
47 | O=C(Cn1nc(-c2ccc(Cl)cc2)c2ccccc2c1=O)NCC1CCCO1 (stereo not drawn) | 0.304
48 | c1ccc(CN2CN=C(Nc3nc4ccccc4s3)NC2)cc1 | -0.813
49 | COc1ccc(N2CC(C(=O)OCC(=O)c3ccccc3)CC2=O)cc1 (stereo not drawn) | -0.343
50 | CCOc1ccccc1CN(Cc1ccco1)S(=O)(=O)c1ccc(-n2cnnn2)c(OC)c1 | 0.115
51 | Cc1ccc(CS(=O)(=O)Cc2ccc(C(=O)NCc3cccnc3)o2)cc1 | 0.895
52 | O=C(CN1CCN(c2ccc(O)cc2)CC1)NC(=O)NCc1ccco1 | 0.00611
53 | Cc1ccccc1C(=O)N1CCN(c2ccc(NC(=O)c3ccco3)cc2Cl)CC1 | -0.144
54 | COc1ccc(S(=O)(=O)N2CCC(C(=O)Nc3ccccc3C)CC2)c2cccnc12 | -0.563
55 | Cc1oc2c(CN3CCCC3)c(O)ccc2c(=O)c1-c1ccc(Br)cc1 | -0.0932
56 | Cc1ccccc1CSCCNC(=O)CCSc1ccccc1 | -0.385
57 | Cc1nc2cc(CC(=O)O)ccc2o1 | -0.422
58 | O=C(COC(=O)/C=C/c1ccccc1)NCc1ccc(Cl)cc1 | -0.244
59 | O=C(Oc1cccnc1)c1cc2ccccc2oc1=O | -0.355
60 | CCCc1nc(Cl)c(C#N)c2c1CCCC2 | 0.271
61 | COC(=O)C(Cc1ccc(O)cc1)NC(=O)CCC(=O)Nc1ccc(S(N)(=O)=O)cc1 (stereo not drawn) | -0.14
62 | Cc1nn(-c2cccc(C(F)(F)F)c2)c(Cl)c1/C=N/n1cnnc1 | -0.527
63 | CCOc1ccc(C2NC(=O)NC(C)=C2C(=O)OC)cc1C (stereo not drawn) | -0.376
64 | O=c1[nH]c2ccccc2c(=O)n1Cc1ccccc1 | 0.345
65 | CCCCn1c(SCC(=O)N2c3ccccc3CCc3ccccc32)nc2c1c(=O)n(C)c(=O)n2C | -0.542
66 | Cc1cccc2cc(/C=N/NC(=O)CN3CCOCC3)c(Cl)nc12 | -0.19
67 | O=C(Cc1csc(Nc2nc(=S)[nH]c3ccccc23)n1)NCc1ccc(Cl)cc1 | active: 7.05
68 | Cc1ccnc(SCc2cc(=O)c(OC(=O)c3ccc(Cl)c([N+](=O)[O-])c3)co2)n1 | -0.912
